Over roughly 33,000 sequences, “E-score (-0.5 to 0.5)” has its median near -0.012; the highest 2% begin near 0.29. The list shows a part of the results.
Target: T1, Ybr033w (UniProt P38073)
T1 sequence: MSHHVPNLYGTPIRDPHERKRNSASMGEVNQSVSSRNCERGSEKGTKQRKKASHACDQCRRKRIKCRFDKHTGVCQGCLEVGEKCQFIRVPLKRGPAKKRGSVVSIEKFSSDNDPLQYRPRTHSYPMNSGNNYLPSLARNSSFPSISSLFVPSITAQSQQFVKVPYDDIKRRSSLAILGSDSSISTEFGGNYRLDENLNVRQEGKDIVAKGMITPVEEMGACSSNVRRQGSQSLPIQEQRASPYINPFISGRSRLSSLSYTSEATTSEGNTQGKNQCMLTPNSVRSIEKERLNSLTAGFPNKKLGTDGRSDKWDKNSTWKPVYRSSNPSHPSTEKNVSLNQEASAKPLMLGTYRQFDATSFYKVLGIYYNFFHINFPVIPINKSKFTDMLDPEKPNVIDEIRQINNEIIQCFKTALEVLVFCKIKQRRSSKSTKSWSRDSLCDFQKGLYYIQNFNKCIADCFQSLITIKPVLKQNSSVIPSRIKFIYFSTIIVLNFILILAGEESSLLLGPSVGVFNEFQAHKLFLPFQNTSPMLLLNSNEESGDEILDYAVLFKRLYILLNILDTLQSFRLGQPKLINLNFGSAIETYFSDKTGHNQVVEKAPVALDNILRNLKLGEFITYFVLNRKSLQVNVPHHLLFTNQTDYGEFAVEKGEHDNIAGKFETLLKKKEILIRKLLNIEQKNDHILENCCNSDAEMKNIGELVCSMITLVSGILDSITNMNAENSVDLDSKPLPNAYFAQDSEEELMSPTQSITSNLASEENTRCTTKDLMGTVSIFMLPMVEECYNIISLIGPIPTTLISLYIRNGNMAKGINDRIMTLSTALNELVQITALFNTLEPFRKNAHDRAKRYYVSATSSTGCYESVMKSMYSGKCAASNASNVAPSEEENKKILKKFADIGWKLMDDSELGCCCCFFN
Assay: PBM E-score (8-mer binding enrichment) (E-score (-0.5 to 0.5)); higher = stronger / more preferred TF binding; most listed sequences are background and not binding sites
Conditions: protein concentration: 200 nM; construct: GST-full length
Procedure, shortened: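 Using PURExpress in vitro transcription/translation, GST-tagged yeast transcription factors were made in full-length or DNA-binding-domain form. These were applied at about 100-200 nM to double-stranded universal all-10-mer Agilent arrays, and bound protein was detected with fluorescent anti-GST. Scans were normalised with masliner before the Universal PBM Analysis Suite assigned E-scores to ungapped eight-base words pooled with their reverse complements.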

| Sequence | PBM E-score |
| --- | --- |
| AGCTAAAC | -0.0716 |
| AAACTTAC | 0.168 |
| AAAACTGT | 0.26 |
| CTGACGAA | 0.0158 |
| AGAGTCGA | -0.0892 |
| GCACTGCA | 0.0352 |
| GACGCTAA | -0.189 |
| CCCCACCA | -0.1 |
| ATGGGATC | -0.0796 |
| AGTCACTC | 0.102 |
| AGTTGATA | 0.211 |
| CTGAACAG | 0.00549 |
| GACTCACA | -0.0481 |
| CTCGATCA | -0.0826 |
| ACGCGAAA | 0.181 |
| CACCTGTC | -0.103 |
| AGCACTCC | -0.0492 |
| GGTATTCA | 0.134 |
| GTCTTATA | 0.0162 |
| ACAGGGCA | 0.00245 |
| CAGATAAG | -0.0549 |
| GTCCCGCA | -0.23 |
| GCGCTGCA | 0.0363 |
| CTGGAACA | 0.31 |
| CGCGCTGC | -0.0548 |

| Sequence | PBM E-score |
| --- | --- |
| CCCGCTGC | -0.347 |
| GCAGGCGC | -0.322 |
| GCGCACGC | -0.185 |
| ATTCGAAC | 0.246 |
| GTCGGGGA | -0.237 |
| GACTCTGA | -0.101 |
| ACTTACGC | 0.0413 |
| CGCCCCCG | -0.255 |
| TGGATGAA | 0.219 |
| AAGGCCCC | -0.252 |
| ACGAACAA | 0.155 |
| AATTAGGG | -0.121 |
| ACTGTGTC | 0.0621 |
| CGGGGACG | -0.255 |
| CACGCACA | 0.136 |
| GCCACACA | -0.102 |
| GAAGAATA | 0.256 |
| AGTGTAAC | -0.0226 |
| ACAATCAC | 0.186 |
| AGGGAGCC | -0.315 |
| CAATGGTA | 0.11 |
| CTGGCTAA | -0.106 |
| ACGAGGCG | 0.0677 |
| GACAATTA | 0.138 |
| CGGAGTAG | 0.0447 |

| Sequence | PBM E-score |
| --- | --- |
| CCGAGGAG | -0.217 |
| AGATAGCT | 0.0181 |
| TGCTCACA | 0.00417 |
| AGTGTTTC | 0.0901 |
| AGTTGAAC | 0.00349 |
| AAGAATAC | 0.211 |
| ATACTCGG | 0.0588 |
| CACGAACA | 0.0414 |
| CATGTATA | 0.152 |
| CGCCGGGA | -0.247 |
| GCGCTCCC | -0.129 |
| ATGTTTGA | 0.103 |
| TCCTGGCA | -0.102 |
| ATGCTGTG | 0.0819 |
| ATAACGTA | 0.226 |
| TAAGAGCA | -0.0966 |
| CCAAGGCC | -0.209 |
| ATGAGTGG | -0.0412 |
| GCTTAGAC | -0.183 |
| GCGAATCA | 0.105 |
| CCCCTGGA | -0.276 |
| ACGCGCAT | -0.0106 |
| CAATAAAG | 0.151 |
| AAATGATT | 0.273 |
| AGATATCC | 0.0838 |

| Sequence | PBM E-score |
| --- | --- |
| ATGTCAGA | -0.0759 |
| AGCGAACA | 0.0794 |
| ACGATCGC | 0.032 |
| TCCGTGAA | -0.0042 |
| CTACTGGA | -0.0522 |
| ACCCCCTA | -0.252 |
| CACTTGAG | -0.108 |
| GTAAAGGA | -0.0618 |
| AGGGACAA | -0.149 |
| GCGAGGCC | -0.0973 |
| ACCAACCG | -0.0498 |
| GACCAGAA | 0.0649 |
| GGGCCTTA | -0.206 |
| ACGAATAA | 0.0842 |
| GCCGGGCC | -0.243 |
| TCCTTGCA | -0.106 |
| AGCCCCCA | -0.395 |
| GTTTCGAA | 0.155 |
| AGGTCTCG | -0.178 |
| GCAGAACA | 0.0454 |
| GTACGAAC | 0.195 |
| ATACAGTA | 0.136 |
| CAGCCGCG | -0.218 |
| CCGGGCAG | -0.122 |
| ACTTGACC | -0.199 |

| Sequence | PBM E-score |
| --- | --- |
| ACCGTGAC | -0.159 |
| AAAAATGG | 0.145 |
| TCCATACA | 0.0807 |
| CGTGGTAC | -0.0603 |
| TATTTCCA | 0.205 |
| AAGCGTTG | -0.152 |
| AGGAGAGC | -0.281 |
| CTATAGCA | 0.136 |
| CGGAGCCC | -0.354 |
| AGAAGACA | 0.0985 |
| CTACTTAA | 0.00655 |
| CATTCAAG | 0.0662 |
| GAGTATGC | 0.023 |
| CCTCCGTA | -0.0161 |
| AGTCCTAG | -0.163 |
| GACACGTA | -0.0468 |
| GGCTCACA | -0.0959 |
| AGCGTCTC | -0.264 |
| AAGGACCG | -0.169 |
| CATGTCGG | 0.00056 |
| CAGCGTAG | 0.0591 |
| CATCGAGC | -0.0235 |
| CAGTCGTC | -0.0227 |
| GAATGGCC | -0.069 |
| CTCCGGTC | -0.113 |

| Sequence | PBM E-score |
| --- | --- |
| CCTCCTGA | -0.201 |
| ATGAGATA | 0.235 |
| CCGGTCCG | -0.21 |
| TCCGAGGA | 0.0122 |
| CCCGTCTC | -0.124 |
| GGACTTAC | -0.101 |
| AGCGTATC | -0.0737 |
| CGTAGGCC | -0.082 |
| GCCCTCGA | -0.34 |
| ACGAGCCT | -0.183 |
| ACCAGCAA | 0.105 |
| CTACCCTC | -0.0104 |
| AGCTAGAC | -0.217 |
| GATTGGCA | -0.067 |
| TCAATCCA | 0.114 |
| ATGGGTTG | -0.0803 |
| CTAAGCAG | -0.105 |
| GCACCCAA | -0.103 |
| GTCATGTA | -0.0598 |
| GCGATCAA | 0.0477 |
| GAATGTTA | 0.108 |
| AGTGTGAA | 0.16 |
| AGCGTCCG | -0.0609 |
| AAAGAGAC | -0.0019 |
| ATGCATCG | 0.0109 |

| Sequence | PBM E-score |
| --- | --- |
| ACGGCGAC | -0.0964 |
| AATTTAGG | 0.229 |
| AAGCATAA | 0.0727 |
| GATGCTAA | 0.0328 |
| ACTCCGGC | -0.0778 |
| ATCGTAGC | -0.0332 |
| GACAACTA | 0.0675 |
| AGACATAC | 0.0201 |
| AGAGGCAT | -0.0565 |
| CGGATTTA | 0.179 |
| CCAGCAAC | 0.0515 |
| CAAGCATG | 0.0671 |
| AATCGGGC | -0.0975 |
| CAATTCAA | 0.172 |
| ACCTTAAT | 0.186 |
| CTAACGGC | -0.0341 |
| CGACGGGC | -0.174 |
| CATTCGCG | 0.0443 |
| AACTTAGC | 0.0118 |
| ACAATCCA | 0.235 |
| AGATAAAG | 0.195 |
| ACACGAGC | -0.166 |

— the supplement of paper PMC3334620
